Measured values from the supplement of paper PMC10126150.
Values marked as one replicate rest on one cluster of the flow cell; about a third of the high ones do not repeat.
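Further: ATP exposure 15 min at 22 °C before imaging.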

These sequences were tested on ATP (assay: switch fluorescence ratio, 500 uM ATP over buffer (Cy3 cluster intensity, sum of 5 cycles each) (fold (ratio)); higher = stronger signal-on switching upon ATP binding; sequences stand for … in TCGTCGGCAGCGTCAGATGTGTATAAGAGACAGTTTTTTTTTTTTTTTTTTTTTTTTT…TC). Details: aptamer strand: ATP DNA aptamer (quencher-CACCTGGGGGAGTATTGCGGAGGAAGG + anchor), 100 nM annealed; ATP concentration: 500 uM; one replicate.
Procedure, shortened: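 Between each of five buffer/ATP cycles, the flow-cell was stripped with NaOH and re-annealed. Each cycle imaged Cy3-labelled switching-strand clusters, annealed to 100 nM quencher-labelled ATP aptamer on a modified Illumina MiSeq flow-cell, first in selection buffer and then after 15 min with 500 uM ATP at 22 °C. The fluorescence ratio is summed target-cycle over summed buffer-cycle Cy3 intensity per cluster, averaged per switch-domain sequence, with clusters outside 100-1000 RFU excluded.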
AGCGGGGATT showed a switch fluorescence ratio of 1.07. AGCGGTGTCG gave a switch fluorescence ratio of 1.04. With AGCGTACGAT the switch fluorescence ratio was 1.04. For AGCGTCCTCG, the switch fluorescence ratio was 1.02. With AGCGTCGGAC the switch fluorescence ratio was 0.999. Work on AGCGTTATCG yielded a switch fluorescence ratio of 1.03. Sequence AGCGTTCATC has a switch fluorescence ratio of 1.01. Sequence AGCGTTCCGA has a switch fluorescence ratio of 1.2. With AGCGTTTGTC the switch fluorescence ratio was 1.08. With AGCTAAAGGG the switch fluorescence ratio was 1.05. For AGCTAAGGAC, the switch fluorescence ratio was 1.04. In the case of AGCTACAGAG, the switch fluorescence ratio is reported as 0.994. In the case of AGCTACATAA, the switch fluorescence ratio is reported as 1.06. For AGCTAGACTG, the switch fluorescence ratio was 1.07. Work on AGCTAGGTAT yielded a switch fluorescence ratio of 1.03. For AGCTAGTTAG, the switch fluorescence ratio was 1.04. Work on AGCTATAGA yielded a switch fluorescence ratio of 1.04. In the case of AGCTATGGAA, the switch fluorescence ratio is reported as 0.99. Sequence AGCTCCAGCG has a switch fluorescence ratio of 1.04. AGCTCGGCCT gave a switch fluorescence ratio of 0.992. With AGCTCGTCAG the switch fluorescence ratio was 1. Work on AGCTCGTCTC yielded a switch fluorescence ratio of 0.971. Sequence AGCTGAGCGC has a switch fluorescence ratio of 1.01. Sequence AGCTGCCCGT has a switch fluorescence ratio of 0.963. In the case of AGCTGCGGTT, the switch fluorescence ratio is reported as 0.978. In the case of AGCTGGGGGC, the switch fluorescence ratio is reported as 0.987. With AGCTGTTAAC the switch fluorescence ratio was 1.05. In the case of AGCTTAGGCT, the switch fluorescence ratio is reported as 1.06. With AGCTTAGTCG the switch fluorescence ratio was 0.958. In the case of AGCTTCGAGT, the switch fluorescence ratio is reported as 0.984. In the case of AGCTTGAATA, the switch fluorescence ratio is reported as 0.941. AGCTTGTGCA showed a switch fluorescence ratio of 0.992. AGCTTGTGTT was tested, and the switch fluorescence ratio was 0.961. Work on AGCTTGTTGT yielded a switch fluorescence ratio of 1.02. Sequence AGCTTGTTTC has a switch fluorescence ratio of 1.02. In the case of AGCTTTCTGT, the switch fluorescence ratio is reported as 0.977. AGCTTTTTCG gave a switch fluorescence ratio of 1.01. Work on AGGAAAACGG yielded a switch fluorescence ratio of 1.04. For AGGAAACGAC, the switch fluorescence ratio was 1.08. Work on AGGAAAGCAA yielded a switch fluorescence ratio of 1.47. Sequence AGGAACACC has a switch fluorescence ratio of 1.04. Work on AGGAACCCCC yielded a switch fluorescence ratio of 1.05. Work on AGGAACGATT yielded a switch fluorescence ratio of 1.04. For AGGAAGATT, the switch fluorescence ratio was 1. Work on AGGAAGTTCG yielded a switch fluorescence ratio of 0.991. Sequence AGGAATATGA has a switch fluorescence ratio of 1.02. Work on AGGACAAGTT yielded a switch fluorescence ratio of 0.995. Sequence AGGACGAGTA has a switch fluorescence ratio of 1.04. For AGGACGGTGG, the switch fluorescence ratio was 1. Sequence AGGACTAGGT has a switch fluorescence ratio of 0.985. With AGGACTTATT the switch fluorescence ratio was 1.02. Work on AGGAGAATCG yielded a switch fluorescence ratio of 1.04. AGGAGAGATG was tested, and the switch fluorescence ratio was 0.961. AGGAGAGGCG was tested, and the switch fluorescence ratio was 1.01. In the case of AGGAGATAGT, the switch fluorescence ratio is reported as 1. In the case of AGGAGATTGA, the switch fluorescence ratio is reported as 0.955. AGGAGCATGT showed a switch fluorescence ratio of 1. AGGAGCCAAA was tested, and the switch fluorescence ratio was 0.966. For AGGAGCGA, the switch fluorescence ratio was 1.06. With AGGAGCGGGT the switch fluorescence ratio was 1.06. Work on AGGAGGACCT yielded a switch fluorescence ratio of 1.04. With AGGAGGACTT the switch fluorescence ratio was 1.07. AGGAGGTCAC showed a switch fluorescence ratio of 0.988. AGGAGTAAGA was tested, and the switch fluorescence ratio was 0.98. AGGAGTAGGC gave a switch fluorescence ratio of 0.697. Work on AGGAGTCAC yielded a switch fluorescence ratio of 1. AGGATAATAT showed a switch fluorescence ratio of 1.03. AGGATAGCG showed a switch fluorescence ratio of 0.966. AGGATCCTCC gave a switch fluorescence ratio of 0.996. In the case of AGGATGCTAG, the switch fluorescence ratio is reported as 0.997. AGGATGTGT gave a switch fluorescence ratio of 0.989. Work on AGGATTAAGA yielded a switch fluorescence ratio of 0.987. Sequence AGGATTCGTC has a switch fluorescence ratio of 1.01. AGGATTGGCG showed a switch fluorescence ratio of 1.03. Sequence AGGATTTCAG has a switch fluorescence ratio of 0.999. In the case of AGGCAAGTCG, the switch fluorescence ratio is reported as 0.998. AGGCAATCCG gave a switch fluorescence ratio of 1.05. Sequence AGGCAATGAG has a switch fluorescence ratio of 1.08. AGGCATACCG was tested, and the switch fluorescence ratio was 1.06. AGGCATCGGG gave a switch fluorescence ratio of 1.02. Work on AGGCATTGGA yielded a switch fluorescence ratio of 0.964. AGGCCCGCGG was tested, and the switch fluorescence ratio was 0.994. With AGGCCGCGAC the switch fluorescence ratio was 1.24. For AGGCCGCTCC, the switch fluorescence ratio was 1.09. With AGGCCGGTTC the switch fluorescence ratio was 0.955. With AGGCCGTGT the switch fluorescence ratio was 0.95. Work on AGGCCTACTA yielded a switch fluorescence ratio of 1.04. AGGCCTCCTT gave a switch fluorescence ratio of 1. With AGGCGACTTT the switch fluorescence ratio was 0.992. Work on AGGCGAGGGC yielded a switch fluorescence ratio of 1.04. Work on AGGCGATCCT yielded a switch fluorescence ratio of 1. In the case of AGGCGCTAAT, the switch fluorescence ratio is reported as 0.98. AGGCGCTCCA showed a switch fluorescence ratio of 0.993. For AGGCGGAATG, the switch fluorescence ratio was 0.999. In the case of AGGCGGATTG, the switch fluorescence ratio is reported as 1.03. AGGCGGCTGG showed a switch fluorescence ratio of 1.03. Sequence AGGCGTCTGT has a switch fluorescence ratio of 1.02. In the case of AGGCGTGGTG, the switch fluorescence ratio is reported as 0.996. AGGCTAGGA gave a switch fluorescence ratio of 0.981. In the case of AGGCTGGGCG, the switch fluorescence ratio is reported as 0.988. AGGCTTGATC gave a switch fluorescence ratio of 0.992. Work on AGGGAACGC yielded a switch fluorescence ratio of 1. For AGGGACTCA, the switch fluorescence ratio was 1.03. With AGGGACTCTT the switch fluorescence ratio was 1.01. AGGGAGAGA was tested, and the switch fluorescence ratio was 1. Sequence AGGGAGCCCA has a switch fluorescence ratio of 0.983. With AGGGATAAAC the switch fluorescence ratio was 1.03. For AGGGATTACT, the switch fluorescence ratio was 1.03. With AGGGATTGGG the switch fluorescence ratio was 1.03. In the case of AGGGATTTCA, the switch fluorescence ratio is reported as 1.04. In the case of AGGGCAAAGA, the switch fluorescence ratio is reported as 0.959. With AGGGCAAGCT the switch fluorescence ratio was 0.983. With AGGGCACTCG the switch fluorescence ratio was 1.02. AGGGCAGCTG gave a switch fluorescence ratio of 0.98. Sequence AGGGCATGGT has a switch fluorescence ratio of 0.959. In the case of AGGGCCAGGA, the switch fluorescence ratio is reported as 0.993. For AGGGCCGTTA, the switch fluorescence ratio was 1. In the case of AGGGCCTAAC, the switch fluorescence ratio is reported as 1.01. Work on AGGGCGAGTG yielded a switch fluorescence ratio of 0.975. With AGGGCGCGAC the switch fluorescence ratio was 1.1. Work on AGGGCGGGAA yielded a switch fluorescence ratio of 1.02. AGGGCTGAAA gave a switch fluorescence ratio of 1. In the case of AGGGCTTCTG, the switch fluorescence ratio is reported as 0.97. AGGGCTTTTC gave a switch fluorescence ratio of 0.965. In the case of AGGGGACCAT, the switch fluorescence ratio is reported as 0.975. AGGGGAGTGC was tested, and the switch fluorescence ratio was 0.977. Sequence AGGGGATACT has a switch fluorescence ratio of 2.27. In the case of AGGGGCCTTG, the switch fluorescence ratio is reported as 1. AGGGGCGTTG was tested, and the switch fluorescence ratio was 0.994. For AGGGGGATTC, the switch fluorescence ratio was 0.974. In the case of AGGGGGTGCA, the switch fluorescence ratio is reported as 1.05. Sequence AGGGGTCTTG has a switch fluorescence ratio of 1.19. AGGGGTGCGT gave a switch fluorescence ratio of 0.995. With AGGGGTGTAT the switch fluorescence ratio was 0.994. Work on AGGGGTTACA yielded a switch fluorescence ratio of 1.03. For AGGGTAACTA, the switch fluorescence ratio was 0.996. With AGGGTAGCT the switch fluorescence ratio was 0.987. In the case of AGGGTAGGAA, the switch fluorescence ratio is reported as 1.06. AGGGTCACTT gave a switch fluorescence ratio of 0.994. With AGGGTCCTC the switch fluorescence ratio was 1.07. For AGGGTCGTG, the switch fluorescence ratio was 1.02. AGGGTCTGGT gave a switch fluorescence ratio of 0.976. AGGGTGGGAG showed a switch fluorescence ratio of 0.999. For AGGGTGGGCG, the switch fluorescence ratio was 0.932. Sequence AGGGTGTGTT has a switch fluorescence ratio of 0.955. AGGGTTCAAT showed a switch fluorescence ratio of 1. For AGGGTTCAGC, the switch fluorescence ratio was 0.991. With AGGTAAAGG the switch fluorescence ratio was 1.01. AGGTAAATTT showed a switch fluorescence ratio of 0.959. AGGTAATATA was tested, and the switch fluorescence ratio was 1.03. In the case of AGGTACGCGC, the switch fluorescence ratio is reported as 1.03. AGGTAGAGAA gave a switch fluorescence ratio of 1.02. For AGGTAGCCGA, the switch fluorescence ratio was 0.932. In the case of AGGTAGGTTA, the switch fluorescence ratio is reported as 1. With AGGTAGTTCG the switch fluorescence ratio was 1. Sequence AGGTATACGA has a switch fluorescence ratio of 1.02. Work on AGGTATTCTG yielded a switch fluorescence ratio of 0.981. For AGGTCAGGAA, the switch fluorescence ratio was 0.961. Sequence AGGTCAGTC has a switch fluorescence ratio of 1.01. For AGGTCCAGTG, the switch fluorescence ratio was 1.07. Work on AGGTCCCGCT yielded a switch fluorescence ratio of 0.981. AGGTCCTCCG gave a switch fluorescence ratio of 1.97. Work on AGGTCGGATT yielded a switch fluorescence ratio of 1. In the case of AGGTCTAAAT, the switch fluorescence ratio is reported as 0.973. AGGTCTAACG was tested, and the switch fluorescence ratio was 1.03. AGGTGACTAG was tested, and the switch fluorescence ratio was 0.96. AGGTGATCAC was tested, and the switch fluorescence ratio was 1.05. AGGTGCTCGC was tested, and the switch fluorescence ratio was 0.989. AGGTGTATGA was tested, and the switch fluorescence ratio was 0.975. With AGGTGTGCCC the switch fluorescence ratio was 1. With AGGTGTTGAA the switch fluorescence ratio was 1. AGGTTAAAGC showed a switch fluorescence ratio of 1. Sequence AGGTTAATC has a switch fluorescence ratio of 0.998. AGGTTACTAA showed a switch fluorescence ratio of 1.02. For AGGTTCGAGA, the switch fluorescence ratio was 0.998. Work on AGGTTCGCTT yielded a switch fluorescence ratio of 0.997. AGGTTGAATC gave a switch fluorescence ratio of 0.98. For AGGTTGATTT, the switch fluorescence ratio was 1.04. AGGTTGGAA was tested, and the switch fluorescence ratio was 0.94. AGGTTTCGGG showed a switch fluorescence ratio of 0.992. AGGTTTCTCA was tested, and the switch fluorescence ratio was 1.02. AGTAAAATCG showed a switch fluorescence ratio of 0.974. AGTAAAGAGA showed a switch fluorescence ratio of 1.05. Sequence AGTAAAGGG has a switch fluorescence ratio of 1.02. Sequence AGTAACAAAG has a switch fluorescence ratio of 1.02. AGTAACCTGC gave a switch fluorescence ratio of 1.1. Work on AGTAACGTG yielded a switch fluorescence ratio of 1.02. For AGTAAGAGTA, the switch fluorescence ratio was 0.971. AGTAATCCGG gave a switch fluorescence ratio of 1.01. For AGTAATCGGA, the switch fluorescence ratio was 0.956. In the case of AGTAATGATC, the switch fluorescence ratio is reported as 0.989. AGTAATTGTT showed a switch fluorescence ratio of 0.953. AGTAATTTGA showed a switch fluorescence ratio of 1.05. In the case of AGTACAACCT, the switch fluorescence ratio is reported as 1.8. Work on AGTACACAGA yielded a switch fluorescence ratio of 1.09. AGTACATCGG gave a switch fluorescence ratio of 0.994. In the case of AGTACATGTT, the switch fluorescence ratio is reported as 1.02. AGTACGAGTT gave a switch fluorescence ratio of 0.979. Sequence AGTACGCTGT has a switch fluorescence ratio of 1.02. For AGTACGGGA, the switch fluorescence ratio was 1.08. AGTACGTCCT gave a switch fluorescence ratio of 1.05.
